The text below walks through data of the supplement of paper PMC11417369.

± gives the standard deviation of the averaged measurements. Some of the results follow.

For the assay, the system named is PfAP2-G AP2 domain (GST-tagged). Nature of the assay: gcPBM binding intensity (ln(normalized median fluorescence intensity)); higher = stronger DNA binding. In outline:
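DNA-binding domains from P. falciparum, fused to GST and produced in E. coli, were put on an Agilent 4 × 180k double-stranded probe array for 1 h in 1× PBS holding 1% milk, 0.2 mg/ml BSA, 0.5% salmon testes DNA and 0.03% Triton X-100. Probes were primer-extended, 36 bp long and drawn from intergenic genomic regions, with negative controls included. After Alexa488 anti-GST antibody detection and a 488 nm scan, binding intensity was set as the highest Masliner-normalised natural-log median intensity across replicate spots of either probe orientation.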
For “AAATTGTGTGAAATATATTAATATTATTATTATTAT [TGCATGCA_negctrl_site189]”, the “gcPBM binding intensity (ln)” value was 9.63 ± 0.32.
Consider “TTTTACCACTAAAAATGTACAAAAAAAAAAAAAAAA [XGTACX_site4226]”, for which the “gcPBM binding intensity (ln)” value was determined as 10.8 ± 0.88.
For the sequence “CCTTGCATTTATTATACACACACAAAAAAATATATA [CACACA_site7964]”, the “gcPBM binding intensity (ln)” value came out at 10.3 ± 0.39.
As for “AAAATATAATATATTGCACACAAAAAGTGAATTATT [CACACA_site8489]”, the figure is 9.965 ± 0.049.
As for “TACCATTATTTTAAGTGTACATACTAATTTATATAT [XGTACX_site6548]”, the figure is 11.3 ± 0.83; as for “TCTTTCTATTTATAATGTACTCAAAATTATTCTATA [XGTACX_site4867]”, 11.3 ± 0.68; as for “TTGCAAATATATGGTTGTACTCAAAAAAAAAAAAAA [XGTACX_site6975]”, 11.6 ± 1.3.
As for “AATAATAATATATGTAGTACACATTTCCATTATGTT [XGTACX_site3708]”, the “gcPBM binding intensity (ln)” value is 11.6 ± 0.95.
As for “AAAAAAAAAAAAAAAACACACATTTCTTTTTCATAT [CACACA_site11]”, the figure is 10.35 ± 0.078.
Consider “TAATAGGAAATTATAGGTACACATACAAATAAATAA [XGTACX_site3587]”, for which the “gcPBM binding intensity (ln)” value amounted to 11.3 ± 0.97.
Consider “TTAATTATATATAAAAGTACTTATTTTTCCATATAA [XGTACX_site3033]”, for which the “gcPBM binding intensity (ln)” value stood at 11.2 ± 0.93.
With “AGAAAAAAAAAACACACACACACACCCTCAATATAA [CACACA_site39]” the figure was 9.985 ± 0.007; with “AGAAAAAATAAAAATAGTACTCAAAAAATTATGAAT [XGTACX_site4908]”, 11.3 ± 0.8; with “ACATAAATAATAAAAACACACATATGTACAGATATA [CACACA_site5112]”, 11.1 ± 0.59.
As for “AATGGTACATGATACACACACGCACATATATATATT [CACACA_site3425]”, the figure is 10.8 ± 0.51.
As for “ATGTAGATATATATATGTACTAATTAGTAGTTTACG [XGTACX_site6275]”, the figure is 11.1 ± 0.64; as for “AATGGATGGTCCAAATGTACATATATATATATATAT [XGTACX_site4800]”, 11.1 ± 0.61.
“TAAATAAACCTGACTTGTACATGTAAAATAAATATA [XGTACX_site1667]”: the “gcPBM binding intensity (ln)” value was 11 ± 0.59.
With “ATTTATATATTGCCCACACACATGTGATTATTTATA [CACACA_site1714]” the figure was 10.5 ± 0.29; with ATATTAAAAAGAAGTGTGCGCAAAACATTAACTTGA, 10.6 ± 0.33; with “TTATATGAAAAAATATGTACGTATAATGAGAAATAT [XGTACX_site8987]”, 11.5 ± 0.92.
With “AAATAGATAAACTAAACACACAAAAAAAAAAAAAAT [CACACA_site1179]” the figure was 9.82 ± 0.071; with “TAATATAACTACATAACACACGAAAATATATGAATC [CACACA_site3628]”, 9.99 ± 0.14.
With “AAAATAACGAGTCAAACACACATATTTATATTTATA [CACACA_site7050]” the figure was 9.9 ± 0.11; with “TCTTTTTTTTTTATTTGTACTTATTTTTTTCAAAAA [XGTACX_site3403]”, 11.5 ± 0.83.
Turning to “GTTATAAATGCATATACACACATACGTACATACATA [CACACA_site7655]”, the “gcPBM binding intensity (ln)” value stood at 11.4 ± 0.92.
With “TCATTAATCAGGTATGCATGCATAACTATTAAAAAT [TGCATGCA_site90]” the figure was 9.785 ± 0.078; with “ACTTATAAAATAACATGTACAAATATTTATTATATA [XGTACX_site133]”, 11 ± 0.54; with “TAAACATAAATATACACACAAACATATATGTATTTT [CACACA_site1214]”, 9.74 ± 0.15.
Take “AAATTATAAATACCTACACACTTATCAAAATAAATT [CACACA_site5280]”: the “gcPBM binding intensity (ln)” value was found to be 9.925 ± 0.064.
With “AAAAAAAAAAAACACACACACACACCGACAAAATAT [CACACA_site8411]” the figure was 10.1 ± 0.2; with “AAAAAAAAAAGGTGTACATGCAAAATAAATTCTTAA [TGCATGCA_site556]”, 11.6 ± 1.1; with “TATGGTAACATATGCTGTACAATATAATATGTTTAA [XGTACX_site1601]”, 10.9 ± 0.57.
With “TAATAATTTATATATGCATGTCAAAATAATATTAAA [TGCATGCA_site12]” the figure was 9.92 ± 0.14; with “TATATAAATATAATATGTACATATAATATGTATATA [XGTACX_site8120]”, 11.1 ± 0.71.
For TATATATTTTTATGTGTGCACTGTTTCATAAAAGAA, the “gcPBM binding intensity (ln)” value is 10.7 ± 0.53.
“AATATTTTTTTATAAACACACATATATATAAATATA [CACACA_site3524]”: the “gcPBM binding intensity (ln)” value was 9.88 ± 0.11.
As for TATAATGGATGCTAGCTGCACTAATAAGCAAAAATA, the figure is 10 ± 0.13.
With “GCATAAATCAAACACACACACATATATATATATATA [CACACA_site2422]” the figure was 10.4 ± 0.7; with “AATGAATATAGTACTGAATGTAATTTAAGGTTTTCC [CACACA_negctrl_site1548]”, 10.7 ± 0.58; with “TAAATGAGAAGGACTGCACACTAAAATGGAAGGAGA [CACACA_site8449]”, 10.4 ± 0.38.
As for “TATTTGTATATATGTGTGCACGTATAATCCATTAAA [GTGCAC_site9569]”, the figure is 10.6 ± 0.38; as for “AAAATTTCAAATAACACACACTAATATATATCTGTA [CACACA_site4904]”, 9.7 ± 0.19; as for “GATGATATATATTAGCGTACATGTATATATACCATT [XGTACX_site6404]”, 11.3 ± 0.82.
Turning to “GTGGACGAAATAGTTGTAAATTTATGTGCAAACCTC [XGTACX_negctrl_site564]”, the “gcPBM binding intensity (ln)” value turned out to be 10.7 ± 0.47.
Take “ATATATATATCATATTGTACATACTTGTATTTATAT [XGTACX_site2432]”: the “gcPBM binding intensity (ln)” value is 10.9 ± 0.67.
With “TCCTTACCTATTAAAGCATGCTCGAATATATATTTT [TGCATGCA_site53]” the figure was 9.81 ± 0.18; with “TATATTAAATATTACACACATACATTTAGTGTCAAA [CACACA_site1990]”, 10.1 ± 0.21.
Turning to “TGGGAGCACAGACACACACACACACCGATATATATA [CACACA_site8001]”, the “gcPBM binding intensity (ln)” value came out at 10.4 ± 0.38.
With “AACAAAATAAATGTATGTACATATATATATATATAT [XGTACX_site7974]” the figure was 11.2 ± 0.51; with “AAAAAAAACGAACACACACACAAATATGTAAAAATA [CACACA_site6673]”, 10.2 ± 0.23; with “TATATAAATATACAAACACACATACAAACATATATA [CACACA_site4754]”, 10.12 ± 0.064.
On to “GAAAATAAAATAAATGCATGTAAATTTAATGTAATG [TGCATGCA_site996]”, for which the “gcPBM binding intensity (ln)” value worked out at 10.06 ± 0.085.
On to “CACACAATGGCTAGCTGTACATAATATATATCTACA [XGTACX_site4691]”, for which the “gcPBM binding intensity (ln)” value came out at 11.1 ± 0.69.
Turning to “TAAAAACAAAAATGTTGTACATAATATAAAACAATT [XGTACX_site6380]”, the “gcPBM binding intensity (ln)” value was 11.2 ± 0.85.
As for “AAAAAAAAAAAATGTGCATGCTATATATATATATAT [TGCATGCA_site727]”, the figure is 10.1 ± 0.59; as for “ATATATATATTTACATGTACACATCTATATATAAAC [XGTACX_site5581]”, 11.5 ± 0.86; as for “TTTTTTTTTCATTATTGTACATTGAAACTTCATTTT [XGTACX_site6041]”, 10.7 ± 0.3.
As for “TTAACAAATAGACACACACACACACGCAAAAAAAAA [CACACA_site6387]”, the figure is 10.5 ± 0.42.
With “TGGTATCAAAAGAATACACACACACCGACATATATA [CACACA_site9265]” the figure was 10.2 ± 0.13; with “GAATATAAACATATTACACACATCTATCTGTACATT [CACACA_site5114]”, 10.6 ± 0.46; with “GTGGGAAACATAAACACACACAAAAAGAAAAAATAG [CACACA_site4810]”, 10.2 ± 0.23.
For the sequence “AAAATAAAATAATAAAATAAAATAATAATAAAATAA [TGCATGCA_negctrl_site401]”, the “gcPBM binding intensity (ln)” value amounted to 9.3 ± 0.042.
As for “AATACATATATATATTGTACATATAGGGAAAAATTA [XGTACX_site2275]”, the “gcPBM binding intensity (ln)” value worked out at 10.9 ± 0.5.
With “TACATACATACATACACACACACATATAAATACATA [CACACA_site4626]” the figure was 10.5 ± 0.18; with “TCTCTAACTTTTAATACACACAAATAAATAAATAAA [CACACA_site6245]”, 10.1 ± 0.37.
With “GTTTTATTTATTTCATGTACACAAAAAAGGTTTTAA [XGTACX_site6525]” the figure was 11.5 ± 0.94.
Take “TATTTTAATATTTGTAGTACAGATTGAAATGACGAA [XGTACX_site4805]”: the “gcPBM binding intensity (ln)” value was 11.6 ± 1.1.
With “AATATAATCTTTCAAAAGAAAAAGACTTCATGAAAA [CACACA_negctrl_site1331]” the figure was 9.73 ± 0.11.
Turning to “ATATACGCATTAATAACACACAATATGATAACAAAT [CACACA_site3623]”, the “gcPBM binding intensity (ln)” value is 10.2 ± 0.092.
As for “AAAATGTATGGAATGCTCTTTTTTAAGTATTATATA [GTGCAC_negctrl_site175]”, the figure is 9.78 ± 0.042; as for “ACAAAATTGATATATGCACACATATATATATTAAAT [CACACA_site8152]”, 9.9 ± 0.13; as for “GTAGGTTTATATTGTAGTACATACAAACGTTAACAA [XGTACX_site5476]”, 11.4 ± 0.95.
As for “TATATTTATTAGTTTCGTACGTACAAAGTTATTTTT [XGTACX_site8847]”, the figure is 11.4 ± 0.82; as for “AATATTGCACCATTTTGTACATAATATATTCAAATA [XGTACX_site475]”, 11.1 ± 0.64.
As for “TTTATTTATTATTAAAGTACTAAAATATATTATTAT [XGTACX_site4887]”, the figure is 10.8 ± 0.59; as for “ATACGTATTTTCTTTTGTACATATATATAAAATATT [XGTACX_site2675]”, 11 ± 0.49; as for “TTTTTTTTTTGATGTTGTACATATATATTATATAAT [XGTACX_site2765]”, 11.3 ± 0.52.
With “GCTATTTATTTATATTGTACTTTTTTTTTTTTTTTT [XGTACX_site3624]”, the “gcPBM binding intensity (ln)” value is 11.7 ± 1.1.
Take “TATTTTGTTCTTTCCACACACAAATACCTATCTTGT [CACACA_site7833]”: the “gcPBM binding intensity (ln)” value was 10.27 ± 0.092.
With “ATGTAACATAGGAAATGTACATATAAATATAATTTA [XGTACX_site6452]” the figure was 11.1 ± 0.59; with “TTTTATTGATTATTCATAAATATGCTATTCATCTAA [CACACA_negctrl_site1084]”, 9.5 ± 0.23; with “ATTCGTGAACTAGCCAAACACACGAAAAAAAAAAAA [CACACA_site3342]”, 10.1 ± 0.38.
Turning to “CATACATATATATATACACACATACATATATATACA [CACACA_site8165]”, the “gcPBM binding intensity (ln)” value was 10.2 ± 0.27.
Turning to “TTTTTTTTTGGGGGTGCATGCAAGACATATATTTAA [TGCATGCA_site228]”, the “gcPBM binding intensity (ln)” value turned out to be 11 ± 0.76.
In the case of “TGGAGGTCATTACACAGTACCCAGGAAATCTACGGA [XGTACX_site2004]”, the “gcPBM binding intensity (ln)” value was 11 ± 0.69.
As for “AATCCTTAAAATTAACGTACGAAATGAATTTATTAA [XGTACX_site956]”, the figure is 10.7 ± 0.36; as for “ATAATAACAAAATATTAACACACATAACATATTATA [CACACA_site8906]”, 9.855 ± 0.049.
Turning to “ACAAAACAAAACAAAAGTACACAAAATAAATAAGAT [XGTACX_site6497]”, the “gcPBM binding intensity (ln)” value came out at 11.5 ± 0.92.
